# Reference: PubChem BioAssay AID1476 (National Center for Advancing Translational Sciences (NCATS), 2009)
# The campaign covered roughly 200,000 compounds. About 4,500 (2.2%) were called active. This list was built around the results that the source calls inconclusive (neither active nor inactive); the mix of calls is not that of the screen. Calls follow the shape of the dose curve; as a rule, active = well fitted inhibition curve with a large enough effect; inconclusive = small, poorly fitted or top-dose-only effect, or effect the other way; inactive = flat fitted curve, though single readings scatter. Where the call is inconclusive, the potency comes from a doubtful curve fit.
# Target: Cruzipain (Trypanosoma cruzi) (UniProt P25779)
# Test: qHTS Assay for Promiscuous and Specific Inhibitors of Cruzain (without detergent); also: nearly all actives have a fitted effect of over 40% in size;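 as to max response, negative = inhibition: plate controls were enzyme without inhibitor for no effect and buffer without enzyme for full effect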
# Details: purified cruzain, Z-FR-AMC fluorescence, no detergent
# Outline: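 Detergent-free condition (0.00005% Triton X-100) in acetate buffer pH 5.5 with DTT. 1.5 nM enzyme and compound were pre-mixed 15 min, then 2 uM Z-FR-AMC substrate added; reaction progress from fluorescence change between first and third reads (60 s).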
# Potency is read from the fitted curve at half-maximal effect; tags tell the direction and shape of the fitted curve.
# Sequence of UniProt P25779 (P25779 whole entry, looked up): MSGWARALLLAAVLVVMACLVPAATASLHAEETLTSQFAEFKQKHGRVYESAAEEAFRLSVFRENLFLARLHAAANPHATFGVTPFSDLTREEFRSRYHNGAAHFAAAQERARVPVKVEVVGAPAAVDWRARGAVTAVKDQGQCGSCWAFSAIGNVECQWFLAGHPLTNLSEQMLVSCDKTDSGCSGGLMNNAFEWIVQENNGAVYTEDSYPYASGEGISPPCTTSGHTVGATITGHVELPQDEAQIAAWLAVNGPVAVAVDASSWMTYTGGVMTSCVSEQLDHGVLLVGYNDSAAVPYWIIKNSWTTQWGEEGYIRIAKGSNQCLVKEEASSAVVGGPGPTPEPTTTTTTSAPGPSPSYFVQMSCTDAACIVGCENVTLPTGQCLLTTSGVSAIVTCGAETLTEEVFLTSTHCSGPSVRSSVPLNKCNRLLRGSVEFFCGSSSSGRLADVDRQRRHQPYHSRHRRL
SMILES,Potency,"max response, negative = inhibition"
CCOc1ccc(NC(=O)CSc2nnc(CNC(=O)C34CC5CC(CC(C5)C3)C4)n2CC)cc1,"inconclusive: 31.6 µM [activator, single point]",
O=C(Nc1ccc(C(=O)N2CCCC2)cc1)Nc1ccc(Cl)cc1Cl,"inconclusive: 31.6 µM [inhibitor, single point]",
O=C(/C=C/c1cccc([N+](=O)[O-])c1)NC(=S)Nc1ccc(CN2CCOCC2)cc1,"inconclusive: 39.8 µM [inhibitor, single point]",
O=C1c2ccccc2C(Nc2ccc(F)c(Cl)c2)N1Cc1ccco1 (stereo unspecified),"inconclusive: 31.6 µM [inhibitor, single point]",
O=C(Nc1ccc2nc(SCC(=O)N3CCOCC3)sc2c1)c1ccc(Br)cc1,"inconclusive: 25.1 µM [activator, partial curve]",
NNc1nc(-c2ccccc2Cl)nc2sc3c(c12)CCCC3,"inconclusive: 39.8 µM [inhibitor, single point]",
CCc1nc(-c2ccc(-c3ccc(OC)cc3)nc2OC)no1,"inconclusive: 39.8 µM [activator, single point]",
CCOc1ccc(-c2nc(CSCC(=O)NCCc3ccc(OCC)c(OCC)c3)c(C)o2)cc1,"inconclusive: 25.1 µM [activator, partial curve]",
CSc1nc2c(sc3ccccc32)c(=O)n1Cc1ccc(C)cc1,,inactive: 10.5%
COC(=O)[C@@H]1C[C@H]1[C@@H](NC(=O)Oc1ccc(F)cc1)c1ccccc1,,inactive: -2.06%
CCc1cc2ccc(OC)cc2nc1SCC(=O)Nc1cc(C)on1,active: 10 µM,
C/C(=N\NC(=O)c1ccc(Cl)c(Cl)c1)c1ccc(Br)s1,active: 25.1 µM,
COc1cc(OC)c(N(C)S(=O)(=O)c2cccc(C(=O)OCC(=O)c3c[nH]c4ccccc34)c2)cc1Cl,active: 10 µM,
CCCCN(CCCNC(=O)c1cc(Nc2ccc(OC)c(OC)c2)nc2ccccc12)c1ccccc1,,inactive: -28.2%
C=CCn1c(SCC(=O)N2CCOCC2)nc2sc3c(c2c1=O)CCCC3,"inconclusive: 39.8 µM [activator, single point]",
CCN(CC)S(=O)(=O)c1ccc(C(=O)Nc2cc3oc4ccccc4c3cc2OC)cc1,"inconclusive: 39.8 µM [inhibitor, single point]",
CCC(=O)N1CCN(c2nc(-c3ccccc3)c3c(c2C#N)CCCC3)CC1,"inconclusive: 31.6 µM [activator, single point]",
CCOc1cc(C(=O)NCC(c2ccc(N(C)C)cc2)N2CCOCC2)cc(OCC)c1OCC (stereo unspecified),"inconclusive: 39.8 µM [activator, single point]",
O=S(=O)(c1cccc2ccccc12)N1CCN(c2ccc(Cl)c(Cl)c2)CC1,active: 20 µM,
Cc1ccn2c(=O)cc(COc3cccc(NC(=O)Nc4cccc(Cl)c4C)c3)nc2c1,,inactive: 13.5%
COc1ccc(-c2cc(C(F)(F)F)nc(SCC(=O)NCC(C)C)n2)cc1OC,,inactive: 23.3%
Cc1ccc(CNC(=O)c2ccc(CS(=O)Cc3cccc(Cl)c3)o2)cc1 (stereo unspecified),"inconclusive: 39.8 µM [activator, single point]",

SMILES,Potency,"max response, negative = inhibition"
COc1ccc(CCNC(=O)CSc2cn(Cc3cccc(C)c3)c3ccccc23)cc1OC,"inconclusive: 39.8 µM [activator, single point]",
COc1ccc2sc3c(=O)[nH]c4ccccc4c3c2c1,"inconclusive: 31.6 µM [inhibitor, single point]",
CCOC(=O)N1CCN(C(=O)c2ccc(CNS(=O)(=O)c3ccc(C)cc3)cc2)CC1,"inconclusive: 39.8 µM [activator, single point]",
COc1ccc(C(=O)NC2c3ccccc3-c3ccccc32)cc1,active: 20 µM,
CC(C)OC(=O)Nc1ccc(Oc2c(F)c(F)c(F)c(F)c2F)cc1,"inconclusive: 39.8 µM [inhibitor, single point]",
O=C(CCn1ccc2cc(S(=O)(=O)N3CCCC3)ccc21)NCc1ccccc1Br,,inactive: 3.06%
N[C@H](CO)Cc1cnc[nH]1,,inactive: -7.62%
O=C(/C=C/c1ccccc1)NC(NC(=S)Nc1cccc2cccnc12)C(Cl)(Cl)Cl (stereo unspecified),"inconclusive: 20 µM [inhibitor, single point]",
N/C(=N\c1nc2ccccc2o1)NC(=O)C(Cc1ccccc1)N1C(=O)c2ccccc2C1=O (stereo unspecified),active: 25.1 µM,
CCOC(=O)N1CCC(NC(=O)c2ccc3c(c2)sc2nc(-c4ccccc4)cn23)CC1,"inconclusive: 25.1 µM [activator, single point]",
C=C(C)CSc1nc(-c2ccccc2)cc(-c2ccc(OC)cc2)c1C#N,,inactive: -28.7%
CCC(C(=O)N1CCN(c2ccccc2)CC1)n1c(C)c2cnn(-c3ccccc3)c(=O)c2c1C (stereo unspecified),"inconclusive: 31.6 µM [activator, single point]",
Cc1nnc(N2CCC(C(=O)NCCC(C)C)CC2)c2nn(-c3ccc(Cl)cc3)c(C)c12,,inactive: -1.48%
CC(OC(=O)CNC(=O)c1ccccc1F)C(=O)Nc1nc(-c2ccccc2)cs1 (stereo unspecified),active: 7.94 µM,
Cn1cc(-c2nc3cncnc3n(Cc3ccccc3Cl)c2=O)c2ccccc21,"inconclusive: 25.1 µM [inhibitor, single point]",
COc1ccccc1OCC(=O)Nc1oc(-c2ccccc2)c(-c2ccccc2)c1C#N,"inconclusive: 39.8 µM [inhibitor, single point]",
COc1ccc(CNC(=O)CCc2c(C)c3cc4c(C)c(C)oc4cc3oc2=O)cc1OC,,inactive: -4.1%
CC(C)c1ccc(OCC(=O)N(Cc2cccs2)C2CCS(=O)(=O)C2)cc1 (stereo unspecified),"inconclusive: 20 µM [activator, single point]",
CCc1ccc(NC(=O)CN2C(=O)C3(SCC(=O)N3c3ccc(F)c(F)c3)c3ccccc32)cc1 (stereo unspecified),"inconclusive: 31.6 µM [inhibitor, single point]",
CC1(C)SC2C(NC(=O)C(NC(=O)N3CCNC3=O)c3ccccc3)C(=O)N2C1C(=O)O (stereo unspecified),,inactive: -0.91%
COc1ccccc1NC(=O)Cn1nnc(-c2ccccc2NC(=O)c2cc3ccccc3oc2=O)n1,"inconclusive: 31.6 µM [inhibitor, single point]",
CCOC(=O)c1c(/N=C/C2=C(O)CCCC2=O)sc(C)c1C,"inconclusive: 39.8 µM [activator, single point]",

SMILES,Potency,"max response, negative = inhibition"
CCc1ccc(NC(=O)C(C)OC(=O)/C=C/c2cccc([N+](=O)[O-])c2)cc1 (stereo unspecified),"inconclusive: 39.8 µM [inhibitor, single point]",
CCOc1ccc(N=Cc2c(O)n(-c3cccc(C)n3)c(=O)c3ccccc23)cc1,"inconclusive: 39.8 µM [activator, single point]",
Cc1ccc(S(=O)(=O)c2nc(S(=O)(=O)c3ccccc3)sc2NCCCOC(C)C)cc1,,inactive: -11.4%
O=C(CCc1ccccc1)NC(NC(=S)Nc1cccc(Cl)c1)C(Cl)(Cl)Cl (stereo unspecified),active: 7.94 µM,
Cc1ccc(CNC(=O)COC(=O)CCCOc2ccc(Cl)cc2Cl)cc1,"inconclusive: 25.1 µM [activator, single point]",
COc1ccc(NC(=O)c2oc3ccccc3c2NC(=O)Cc2coc3c(C)c(C)ccc23)cc1,"inconclusive: 6.31 µM [inhibitor, full curve]",
CC(=O)N1CCC(N(C(=O)Nc2ccc(F)cc2)C2CCCC2)CC1,"inconclusive: 31.6 µM [inhibitor, single point]",
CCOC(=O)N1CCc2c(sc3c2c(=O)n(-c2ccc(Cl)cc2)c(=O)n3CC(C)C)C1,,inactive: 0.541%
COc1ccc(/C=N/N2CCN(c3ccncc3S(=O)(=O)N3CCCCC3)CC2)cc1,"inconclusive: 31.6 µM [activator, single point]",
CCN(CC)c1ccc(C=C(c2nnnn2-c2ccc(C)cc2)c2nnnn2-c2ccc(C)cc2)cc1,active: 31.6 µM,
CCCOc1ccc(-c2nc(SCC(=O)c3ccc(Cl)cc3)n[nH]2)cc1,active: 10 µM,
CCCCC(CCCC)=N/N=C/c1c(O)n(CC)c2cc(C3=NNC(=O)CC3)ccc12,"inconclusive: 12.6 µM [activator, single point]",
Cc1onc(-c2ccccc2)c1C(=O)NC(=S)NNC(=O)c1ccccc1O,"inconclusive: 39.8 µM [inhibitor, single point]",
CCOC(=O)C1=C(C)NC(=O)NC1c1ccc(-c2ccccc2F)o1 (stereo unspecified),"inconclusive: 31.6 µM [inhibitor, single point]",
Cc1nc(NC(=O)c2ccccc2)sc1-c1csc(Nc2ccc(F)cc2)n1,active: 15.8 µM,
CN(C)c1ccc(-c2cncnc2NCc2cccs2)cc1,,inactive: -8.72%
COc1cccc(OC)c1C(=O)NCCc1csc(-c2ccc(Cl)cc2)n1,"inconclusive: 31.6 µM [activator, single point]",
COc1cc2c(cc1OC)C(C)N(C(=O)c1cc3n(n1)C(C(F)(F)F)CC(c1ccco1)N3)CC2 (stereo unspecified),"inconclusive: 39.8 µM [activator, single point]",
Cn1nnnc1SCCNCc1cc(Br)ccc1OCc1ccccc1Cl,,inactive: -4.29%
Cc1ccc(S(=O)(=O)NCCSc2nnc(N)s2)cc1,"inconclusive: 25.1 µM [inhibitor, single point]",
O=C(O)[C@@H](Cc1c[nH]c2ccccc12)C(=O)NO,,inactive: -4.87%
COc1cc2c(cc1OC)-c1cc3cc(OC)c(OC)cc3c(=O)n1CC2,"inconclusive: 39.8 µM [activator, single point]",
